Consider five compounds from the supplement of paper PMC4604168 (melanoma cell lines).

Some test systems named below: MeWo; RPMI7951; RVH-421; SkMel28; SkMel30; UACC62; MZ2-MEL; SkMel2; SkMel5; UACC257.
Holding throughout (experiment): cell count relative to DMSO control; melanoma cells; higher = more viable cells
Common to all, as to details: library dose: low library concentration; 72 h

The other results are listed elsewhere or left out. Repeats are few or missing, and single values can be far off.
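Further: cell number obtained by counting DAPI-stained nuclei in high-throughput microscope images with image analysis software, screen run in 1,536-well plates.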

For `CS(=O)(=O)CCNCc1ccc(-c2ccc3ncnc(Nc4ccc(OCc5cccc(F)c5)c(Cl)c4)c3c2)o1` [lapatinib] + C[C@]1(c2nc3c(C(N)=O)cccc3[nH]2)CCCN1 [Veliparib] (first compound 0.8 µM, partner dose 1.4 µM), the cell count was determined as 87.3% in the assay on MeWo; 84.2% with RPMI7951; 91.6% in the assay on RVH-421; 75.1% in the assay on SkMel28; 83.8% in the assay with SkMel30; 80.4% with UACC62.

As to `CNC(=O)c1cc(Oc2ccc(NC(=O)Nc3ccc(Cl)c(C(F)(F)F)c3)cc2)ccn1` [sorafenib] + C=C(c1ccc(C(=O)O)cc1)c1cc2c(cc1C)C(C)(C)CCC2(C)C [Bexarotene] (first compound 0.4 µM, partner dose 2 µM), the cell count was 98.6% with MZ2-MEL; 85.3% in the assay on MeWo; 87.2% in the assay with RPMI7951; 94.3% in the assay with RVH-421; 89.3% with SkMel28; 93.2% with SkMel2. Further, the results for the cell count in the assay with SkMel30 and in the assay with UACC62 were 83.8% and 97.3%, respectively.

Take `CN1CCN(c2ccc3nc(-c4c(N)c5c(F)cccc5[nH]c4=O)[nH]c3c2)CC1` [Dovitinib] + O=S(=O)(c1ccccc1)N(CC(F)(F)F)c1ccc(C(O)(C(F)(F)F)C(F)(F)F)cc1 [T0901317] (first compound 0.1 µM, partner dose 1.4 µM): the cell count in the assay with MeWo turned out to be 98.8%; in the assay with RPMI7951, 108%; in the assay with RVH-421, 77.2%; in the assay with SkMel28 it was 112%; in the assay with SkMel2 it was 102%; with SkMel30, 90.8%. Also, the figures for the cell count in the assay on SkMel5, in the assay with UACC257 and with UACC62 were 87.3%, 109% and 84.2%, respectively.

Take `CNC(=O)c1cc(Oc2ccc(NC(=O)Nc3ccc(Cl)c(C(F)(F)F)c3)cc2)ccn1` [sorafenib] + CC(C)CCN1c2nc(Nc3cc(F)c(O)c(F)c3)ncc2N(C)C(=O)C1C [BID1870] (first compound 0.4 µM, partner dose 0.2 µM): the cell count came to 88.6% in the assay on MeWo; 96.4% in the assay on RPMI7951; 106% in the assay with RVH-421; 80% in the assay on SkMel28; 89.3% in the assay on SkMel30; 99.6% in the assay with SkMel5. In addition, the cell count in the assay on UACC257 stood at 88.8%; with UACC62, 88.6%.

Take `CN1CCN(c2ccc3nc(-c4c(N)c5c(F)cccc5[nH]c4=O)[nH]c3c2)CC1` [Dovitinib] + Nc1ccn([C@@H]2O[C@H](CO)[C@@H](O)C2(F)F)c(=O)n1 [gemcitabine] (first compound 0.1 µM, partner dose 0.0004 µM): the cell count with MeWo turned out to be 85.1%; with RPMI7951, 88%; with RVH-421 it was 110%; with SkMel28, 75.5%; in the assay with SkMel30, 46.1%; in the assay with UACC62 it was 82%.
